Measurements as given in PMC7819943, “Rice protein-binding microarrays: a tool to detect cis-acting elements near promoter regions in rice”.
The list shows a part of the results.

These sequences were tested against T1, OsWOX13 (Oryza sativa, UniProt Q5QMM3 1-267) (assay: protein-binding microarray (RPBM); PBS, 2% BSA, 51.3 ng/ul salmon testes DNA, 50 uM zinc acetate, 200 nM TF, 25 C, 1 h; high values mean tight binding). Conditions: protein: recombinant; tags: N-terminal polyhistidine and DsRed monomer fusion (pET32a); label: CyDye5-dUTP incorporated in the synthesized complementary strand; 3' TTTTT single-stranded linker to array surface; dsDNA, one strand shown.
T1 sequence: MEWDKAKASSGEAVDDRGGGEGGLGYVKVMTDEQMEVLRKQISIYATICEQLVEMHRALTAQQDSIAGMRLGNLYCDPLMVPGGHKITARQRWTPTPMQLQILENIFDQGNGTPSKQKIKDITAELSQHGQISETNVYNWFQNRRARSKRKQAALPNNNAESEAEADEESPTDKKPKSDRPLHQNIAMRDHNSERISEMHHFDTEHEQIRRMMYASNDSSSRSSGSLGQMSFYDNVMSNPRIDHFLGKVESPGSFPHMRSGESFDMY
How it was run: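 For the binding signal, per-feature fluorescence intensity was read in arbitrary units on an Axon 4000B scanner. Before scanning, a 2% BSA-blocked custom Agilent array made double-stranded with Cy5-dUTP was washed after 1 h at 25 °C with 200 nM protein and 50 µM zinc acetate. The proteins were Ni–NTA-purified transcription factors with N-terminal polyhistidine and DsRed fusions, expressed in E. coli BL21-CodonPlus.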
With “CGGAGTTGTTAATTATACATAGTTGAGTGATCGCTAGCTCCGGAGTCACCTAGTGCAG” the binding signal was 8830 fluorescence intensity (a.u.). In the case of “ATTGGTTTCGTTAAATTTAACATTAAATATATTTTGATAACGGAGTCACCTAGTGCAG”, the binding signal is reported as 6430 fluorescence intensity (a.u.). With “TATCATTATTTACCGATTAATTTATACTGGATTATATTGTCGGAGTCACCTAGTGCAG” the binding signal was 16500 fluorescence intensity (a.u.). In the case of “GTAATGACCGTTTGATTGAACCACAGGAATTGGATGAGAGCGGAGTCACCTAGTGCAG”, the binding signal is reported as 38800 fluorescence intensity (a.u.). “AATTAATTAACGTGTGTGCTTGCACAGCAGCCGACGTGTTCGGAGTCACCTAGTGCAG” was tested, and the binding signal was 17700 fluorescence intensity (a.u.). With “AATGACCCCAATTTATTTGGTAAATTTACTAACCTGAGCGCGGAGTCACCTAGTGCAG” the binding signal was 7560 fluorescence intensity (a.u.). For “AAGTAATTAAACCTAATCAATCATCAAGCCATATATACATCGGAGTCACCTAGTGCAG”, the binding signal was 21700 fluorescence intensity (a.u.). In the case of “TATTGATAGTTGACTGTCTAAACGTTTAAATGTTGTTACCCGGAGTCACCTAGTGCAG”, the binding signal is reported as 22600 fluorescence intensity (a.u.). With “TCTTGATGGACAAAGCTAGGGTTGTAGTAGGCTTGTAGCCCGGAGTCACCTAGTGCAG” the binding signal was 32700 fluorescence intensity (a.u.). “GTGTTTATGCCTCATCACTAATTAGAATCTTAATTTCTCTCGGAGTCACCTAGTGCAG” was tested, and the binding signal was 4710 fluorescence intensity (a.u.). “ATCTAATTAGTTAAGAAGACATTGGTATTCAAAGTTTAAACGGAGTCACCTAGTGCAG” was tested, and the binding signal was 6530 fluorescence intensity (a.u.). “ACGTTGATTTATCATGATGTTAACACTTGCTGAGTTAGGACGGAGTCACCTAGTGCAG” was tested, and the binding signal was 39200 fluorescence intensity (a.u.). For “ATGAATTAGATTAGATGTATATTTGAGGGAGTTAAAGTGGCGGAGTCACCTAGTGCAG”, the binding signal was 20800 fluorescence intensity (a.u.). For “GTGACAGATTTATCACTCTGTTTTCTGTCACTCTGAGGCTCGGAGTCACCTAGTGCAG”, the binding signal was 28300 fluorescence intensity (a.u.). In the case of “TAGCTACTAATTAATTGTTCCGTGCAAGTTGGAGTAACGCCGGAGTCACCTAGTGCAG”, the binding signal is reported as 27800 fluorescence intensity (a.u.). With “AGTCCATGATTAGCCATAAATGCTACAGTAACCTATATGTCGGAGTCACCTAGTGCAG” the binding signal was 13800 fluorescence intensity (a.u.). “AGAAATAAATGAGTCTTTCAAGCAATCATCTCAAGCAAGGCGGAGTCACCTAGTGCAG” was tested, and the binding signal was 5630 fluorescence intensity (a.u.). For “CCTCTGACTGACCTGTGGGCCCGTGCTGTCATTCCAATCTCGGAGTCACCTAGTGCAG”, the binding signal was 6880 fluorescence intensity (a.u.). “CACGCTGACTCAACCAGATTGATAATAGTCAACTCGTCACCGGAGTCACCTAGTGCAG” was tested, and the binding signal was 18900 fluorescence intensity (a.u.). “GCTTAATTAATTAAGTCCATGGCTCGATCGAGAGCCAGTCCGGAGTCACCTAGTGCAG” was tested, and the binding signal was 38400 fluorescence intensity (a.u.). For “TTGTGATAATTTTCCACGCTATTGTTACATCAAATTGAAACGGAGTCACCTAGTGCAG”, the binding signal was 5730 fluorescence intensity (a.u.). For “TGCATCTATTGATAATTTAAAATTTTGAGATTTGGCTGTACGGAGTCACCTAGTGCAG”, the binding signal was 6590 fluorescence intensity (a.u.). In the case of “CCTTTATTAATTATCCAAATGTCATAAATAATTGGGTTGTCGGAGTCACCTAGTGCAG”, the binding signal is reported as 27900 fluorescence intensity (a.u.).
